Some of the results follow.

The test system of the assay is PfSIP2 AP2 domain 1 (GST-tagged). As to the kind of experiment: gcPBM binding intensity (ln(normalized median fluorescence intensity)); higher = stronger DNA binding. Put shortly:
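GST-tagged P. falciparum DNA-binding domains produced in E. coli were incubated for 1 h on an Agilent 4 × 180k array of primer-extended double-stranded 36-bp intergenic genomic probes with negative controls. Binding intensity is the highest Masliner-normalised natural-log median intensity across replicate spots of either probe orientation, with bound protein detected by Alexa488 anti-GST antibody at 488 nm.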
In the case of “TAAATACTTGTATATAGTACAAGTTGTTTTTTTTAA [XGTACX_site5643]”, the “gcPBM binding intensity (ln)” value was found to be 6.65.
The same measure for “TATATATATTATATATGTACATATATTTTTTTTTTT [XGTACX_site127]”: 7.5.
Under “ATTTATATTACAAAAAGTACACACATAAATAAATAC [XGTACX_site1827]” stands 7.48; under “TATTAATCATATAAATGTACGTATATATATTTTTCT [XGTACX_site1421]”, 7.07.
Take “ATATATATATATATAACACACGTGTATATATATGTA [CACACA_site3644]”: the “gcPBM binding intensity (ln)” value came to 9.34.
Under “TATAATATATTATAACGTACAAATATATATATAAAA [XGTACX_site6581]” stands 6.98.
Under “CAATCATAGAAAAACAGTACGTGTAGCAAACATCCT [XGTACX_site4889]” stands 6.69.
In the case of “AAAAAAAAAAAATATATATATATATATATATATATA [CACACA_negctrl_site1606]”, the “gcPBM binding intensity (ln)” value worked out at 9.7.
The same measure for “AAAATCTAGGTATTTATACACACTAAAATAATATAC [CACACA_site623]”: 7.03; for “CAAATACAGAAACACACACACATATACATATATATA [CACACA_site3498]”: 7.55; for “TATATATATATATGGGGTACAAATGGTCAGTATTAT [XGTACX_site1223]”: 9.5.
The same measure for “ATGTTATTAAAAAAGGGTACACATCTTTTATGTTAA [XGTACX_site812]”: 7.01; for “TTTAAATATAATTGGAGTACTTATAATATATATATA [XGTACX_site7247]”: 8.8; for ATTACACATATAGTAGTGCAATAACTCCAAAAAAAA: 8.48.
Under “AATATGTAATAGTGTACACATATATCTGTATTTATG [CACACA_site4252]” stands 7.15; under “AAAAAGGGTATTATTACACACACGTAAATATTAAGA [CACACA_site4233]”, 6.88; under “GAAAATATAAAAAAAAGTACATTTTCTCTAAATATA [XGTACX_site2441]”, 6.93.
“AAAAAAAAATTATATACACACATATAAATATATATA [CACACA_site1197]”: the “gcPBM binding intensity (ln)” value was found to be 7.07.
In the case of “CTATATAATATGAGCACACATAAGATTTGGTGTTAT [CACACA_site744]”, the “gcPBM binding intensity (ln)” value stood at 6.89.
On to “AAAACAAATAAGTAAACACACATATAAAATCTATAT [CACACA_site7262]”, for which the “gcPBM binding intensity (ln)” value was 6.9.
Under “CCTATTTATTTATACACACACATATATAAATAAATA [CACACA_site7417]” stands 7.44; under “TTATGTAAATGCTTATGTACTTATTACAATATTTTT [XGTACX_site4057]”, 6.86; under “TAAGAATTGAAAAAATGTACACAATATAAAATTGAA [XGTACX_site698]”, 6.88.
Take “AAAAAGAATAAATAAATAAATAAATATATATATATA [GTGCAC_negctrl_site584]”: the “gcPBM binding intensity (ln)” value was determined as 9.47.
Under “AAAAAGAAAAAAAAATGTACATAAAGTCTAATGATA [XGTACX_site4781]” stands 6.94; under “TTTATTACTATGTAAACACACATGCAATATATGTTA [CACACA_site1114]”, 6.93.
Under “ATATTATATAAATACACACACACATGCATGCACATA [CACACA_site4236]” stands 9.02; under “TATATGTTTGAATATACACACAACATATTTATATAT [CACACA_site7832]”, 6.9; under “AAAAAAAAAAAATATGTACACACATATATAATACAT [CACACA_site8473]”, 7.24.
The same measure for “TTTTTTGTTAAAAGAGTGCAAATTTTTAAAGATTTG [GTGCAC_site9502]”: 8.43; for “AGTAATATAATATAAGCACACGTGTATTTATTTAGG [CACACA_site7921]”: 6.92.
“AAAAAAAAAAAAAAATACAAGCACATTTATATAAGC [GTGCAC_negctrl_site695]”: the “gcPBM binding intensity (ln)” value worked out at 7.49.
The same measure for “AAATACATTAAAATGACATGCAGATATATATCAAAA [TGCATGCA_site477]”: 6.87.
The same measure for “TATATATCAATATTTACACACATGCGCCCACATAAA [CACACA_site7185]”: 7.57.
The same measure for “AAAAAAAAAAGACACACACACACAAATACATACACA [CACACA_site6472]”: 6.99.
In the case of “TGAATAAAGATATATACACACATATAGGTATATATC [CACACA_site6870]”, the “gcPBM binding intensity (ln)” value stood at 6.81.
As for “TGCTTATATTTTTATACACACAAGATACTTTTTGTT [CACACA_site1535]”, the “gcPBM binding intensity (ln)” value is 7.07.
Under “ATCTAAATAAAGTTAACACACACATAATATATATAT [CACACA_site8055]” stands 8.7; under “TTTTTTTCTTTTGGGAGTACCAACATTTTCACATAT [XGTACX_site1371]”, 7.15.
Under “CTATGCCCCATATAAACACACAAATAAAAAGAATAT [CACACA_site2681]” stands 7.27.
Under “TGCAATGGAGCATAAAGTACATATAATTGTATTTTT [XGTACX_site7349]” stands 7.06.
On to “AATACAGAGGAAAATACACACGTATATATATAAATA [CACACA_site9125]”, for which the “gcPBM binding intensity (ln)” value is 6.88.
Under “TAGAATAATCCTTACACACACACACCCACGAATAAA [CACACA_site483]” stands 7.06; under “TTTTAAAAAAAAAAAAAAAAAAAAAAAAAAAAAAAA [CACACA_negctrl_site1343]”, 6.99; under TTTTAAAATTATTAGGTGCATATTTATTCTATATTT, 10.
The same measure for “TGTTTTTTTATTTTCACACATAATCCAATTATACAT [CACACA_site6070]”: 7.38; for AATAAAAATAATATAGTGCATAATATAAGGAAAAAA: 9.36.
Under “TTAAAAAAATATAGAGCATGCTAAAAATAAAAAAAT [TGCATGCA_site794]” stands 6.97; under “CAACACTTAGATTTTAAGTTCACTGGTTAATATATA [CACACA_negctrl_site707]”, 6.69; under “AGGTCTATATAATAAGTGCATTTTTTTTTTTTTTTT [GTGCAC_site9664]”, 8.44.
As for “GTTATACTCATCAACACACACATACAACGTGGTGTA [CACACA_site4789]”, the “gcPBM binding intensity (ln)” value was determined as 6.98.
Under “ATCAACAAAACATACACACACATATATATATATATA [CACACA_site2989]” stands 9.6.
Under “TTTCTATATCTATTTAATTAACTTTTTATACTGATT [GTGCAC_negctrl_site415]” stands 6.82; under “GCATCTCATTTGTGATGTACTATATTATCCGTTTTT [XGTACX_site7576]”, 6.79; under “CACATAAAAAAATAAACACACATATGTATTTATATA [CACACA_site5718]”, 6.77.
The same measure for “CATATCATTGATTATAGTACACATACCATTTTTTAT [XGTACX_site6572]”: 6.99; for “CGTATATGACAAAAGCGTACGCATCAGCAGAAAAAT [XGTACX_site6248]”: 7.24; for “ATATATATATATATATGTACTGAATAAAGAACAAAA [XGTACX_site5400]”: 9.08.
Turning to “AGAAATAAGAAATATACACACATATAAATATAAATA [CACACA_site7342]”, the “gcPBM binding intensity (ln)” value is 6.74.
Under “AAAAAAAATGATAATATACACACTTATGGGAGAGCG [CACACA_site2516]” stands 6.97; under “AGAATATGTTAAAAAAGTACATACTCTTTATATACG [XGTACX_site79]”, 6.83; under “TAAAAAAAAACATATACACACAAAAACGTACACATA [CACACA_site1354]”, 7.29.
The same measure for “TTTTTTTCTCACAATCGTACATAAATACATATATAT [XGTACX_site3150]”: 7.29; for “TAATGTACATAAACCGCACACATATAAAAAAATAAA [CACACA_site2851]”: 7.59.
Under “TATATTTTTTAAACCACACACAATATAGAGTAGAAT [CACACA_site613]” stands 7.29; under “AGGGGAAATAAAATATAAATTATCATATATATATAT [XGTACX_negctrl_site366]”, 8.85.
Turning to “TGTATATATAAACATGCACACGTGGTTGTATATATA [CACACA_site9078]”, the “gcPBM binding intensity (ln)” value stood at 7.64.
Consider “AGAATTCGTTTAAAAAGTACATTCAATTTAATAATG [XGTACX_site6603]”, for which the “gcPBM binding intensity (ln)” value stood at 6.83.
The same measure for “AATATTTTAAAAAAAAGTACATTATATATATATGTT [XGTACX_site8073]”: 7.16; for “TAGTATTAAAATATTTGTACTTATATGTATTATATA [XGTACX_site538]”: 6.89; for “TGTAGTCTGGAGAAGAGTACACAGTATCTGGTAACA [XGTACX_site2038]”: 6.81.
The same measure for “AATAAAAAGGAACACACACACACACGGATATAAATA [CACACA_site7658]”: 7.07; for “TCATAGTATAGACACACACACACACGCATATAAATA [CACACA_site6915]”: 7.17.
Regarding “TCTTTGTAAATTTCTTGTACGTAAATTTTTTTTAGG [XGTACX_site7062]”, the “gcPBM binding intensity (ln)” value amounted to 7.21.
The same measure for “TATTTTACATCTTCTCACATTTTATCACTTTTTAAA [CACACA_negctrl_site330]”: 7.15.
The same measure for “TTTTTTTTATGGTACACACACGCGTATGGTTGCACG [CACACA_site1877]”: 7.49.
Under TTATTTTTGTTCATAGTGCATAGAATTTATACATAT stands 8.42; under “ATAGACAGCGCACAAACACACAAACACAGACCCCCA [CACACA_site4409]”, 7.81.
As to “ATTTATTTATTGGCACGTACAAATTTGTGTTTTCCA [XGTACX_site6978]”, the “gcPBM binding intensity (ln)” value is 7.23.
The same measure for “TTGTAAATTTCTGGTTATATATTTTATGTATATGTT [CACACA_negctrl_site1443]”: 6.88; for “TTTTTTTCTTTTCAAACACACAATTGGTATATATCA [CACACA_site7542]”: 6.85.
Under “AAAGAAATGAAATATACACACATACATAAATACATA [CACACA_site6081]” stands 6.88.
For “AATTATATATTATAATGTACATATATATAACTATAC [XGTACX_site1865]”, the “gcPBM binding intensity (ln)” value was 7.13.
Under “ATAAAGGAAATTACAAGTACAAATAAGATAAAATAA [XGTACX_site4514]” stands 7.03.
Under “ATATATTTAAACTACACACGCATATCTTAGAAATAA [CACACA_site1272]” stands 7.03.
Under “TATAAAAAAAGAGGAGGGATGGTATACTTGTGGTTT [TGCATGCA_negctrl_site49]” stands 6.94; under “ATGGATTATACGTGCACACATATATACAAATAAATA [CACACA_site640]”, 10.5.
Turning to “ACCATTTGTAGGTAAACACACATTATTATTAATATC [CACACA_site2635]”, the “gcPBM binding intensity (ln)” value worked out at 7.12.
The same measure for “TAAAATGCAATCTGAACACACATATTTTTTTAATAT [CACACA_site6922]”: 6.8.

These data come from the supplement of paper PMC11417369.
